Consider one molecule from US5661001, “High molecular weight desulphatohirudin” (Ciba-Geigy Corporation, dated 1997).

The target of this assay is human thrombin (human). Nature of the assay: progress-curve kinetics of thrombin inhibition, D-Phe-pipecolyl-Arg-p-nitroanilide 100 µM, enzyme 20 pM.

B1: [Cys^33 ]HV1--[Cys^33 ]HV1 dimer (other)
chain: VVYTDCTESGQNLCLCEGSNVCGQGNKCILGSCGEKNQCVTGEGTPKPQSHNDGDFEEIPEEYLQ
modifications: Cys^33 --Cys^33 intermolecular disulfide bond between the two chains; no sulphate at Tyr^63 (desulphatohirudin)
As usually defined, the Ki is a measure of affinity in units of concentration, obtained from inhibition or displacement. A low value points to a stronger hold on the target. By kon is commonly meant the rate constant with which the complex forms. The low end stands for slower complex formation, the high end for faster complex formation. Molecule B1 came in with an inhibition constant Ki of 0.33 pM and a kon of 5.1e+07 M⁻¹ s⁻¹.
